# Measured values taken from paper PMC4336329 (PLoS ONE, 2015).
# Among all 310,000 compounds or so, about 2,200 (0.71%) showed an effect of 50% or more. The effect is printed as a negative number. The list shows a part of the results.
# Target: human ether-à-go-go-related gene (hERG) potassium channel (human, UniProt Q12809)
# Assay: primary screen, population patch clamp on CHO cells stably expressing hERG
# Chain of human ether-à-go-go-related gene (hERG) potassium channel (Q12809 whole entry, looked up): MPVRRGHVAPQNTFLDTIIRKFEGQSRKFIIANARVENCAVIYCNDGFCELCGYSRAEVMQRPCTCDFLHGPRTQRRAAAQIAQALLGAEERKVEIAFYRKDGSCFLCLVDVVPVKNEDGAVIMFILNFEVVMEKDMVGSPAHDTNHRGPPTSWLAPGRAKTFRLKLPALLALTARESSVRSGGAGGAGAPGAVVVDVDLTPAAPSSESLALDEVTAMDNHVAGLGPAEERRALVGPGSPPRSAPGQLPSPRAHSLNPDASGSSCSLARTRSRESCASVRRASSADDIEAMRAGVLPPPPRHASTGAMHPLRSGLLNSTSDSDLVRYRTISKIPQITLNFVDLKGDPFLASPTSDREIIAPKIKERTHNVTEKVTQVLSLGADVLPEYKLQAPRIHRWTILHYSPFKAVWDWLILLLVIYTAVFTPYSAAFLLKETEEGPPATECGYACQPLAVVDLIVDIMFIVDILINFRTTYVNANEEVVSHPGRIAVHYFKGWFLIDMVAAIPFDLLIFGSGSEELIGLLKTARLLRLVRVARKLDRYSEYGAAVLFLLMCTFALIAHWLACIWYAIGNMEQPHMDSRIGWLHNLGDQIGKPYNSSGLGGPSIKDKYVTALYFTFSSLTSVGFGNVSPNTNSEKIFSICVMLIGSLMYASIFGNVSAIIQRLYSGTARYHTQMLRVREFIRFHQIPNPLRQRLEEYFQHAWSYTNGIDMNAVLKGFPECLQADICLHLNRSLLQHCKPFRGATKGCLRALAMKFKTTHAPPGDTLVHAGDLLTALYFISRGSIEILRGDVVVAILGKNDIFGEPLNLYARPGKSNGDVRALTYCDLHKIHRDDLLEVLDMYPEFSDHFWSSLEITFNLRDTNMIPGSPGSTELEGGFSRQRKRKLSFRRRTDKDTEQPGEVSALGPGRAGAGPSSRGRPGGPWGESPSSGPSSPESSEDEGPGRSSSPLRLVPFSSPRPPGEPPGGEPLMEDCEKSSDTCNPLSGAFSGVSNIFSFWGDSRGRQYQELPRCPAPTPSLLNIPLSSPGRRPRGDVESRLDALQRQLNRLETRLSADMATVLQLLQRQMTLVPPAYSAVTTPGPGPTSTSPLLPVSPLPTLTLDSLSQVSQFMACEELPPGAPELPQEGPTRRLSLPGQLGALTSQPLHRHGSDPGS
row,Structure (SMILES),"hERG current change (%, negative = inhibition) at 1uM [%]"
1,CCOc1ccc2c(c1)sc(=NC(=O)C1CC1)n2C,10.6
2,COc1ccc(CN2CCNC(=O)C2CC(=O)N2CCc3ccccc3C2)c(OC)c1 (centres unmarked),17.7
3,COc1cc(C2(c3ccc(O)c(OC)c3)C(=O)Nc3c(C)cc(Br)cc32)ccc1O,7.77
4,CCN1CCN(CCC2Oc3cc([N+](=O)[O-])ccc3NC2=O)CC1 (centres unmarked),6.29
5,c1ccc2c(c1)CCN(c1nc3ccccc3n3cnnc13)C2,11
6,CCSc1nc(=S)n(CC)c(C)c1C(C)=O,3.19
7,COc1cc2cc(CN(CCCN3CCOCC3)Cc3nnnn3Cc3ccccc3)c(=O)[nH]c2cc1OC,1.31
8,COc1ccc(C(=O)Nc2nc(N)n(-c3ccccc3)n2)cc1OC,7.67
9,CN(CC(=O)Nc1ccc(F)cc1)CC(=O)N1CCCCCC1,9.66
10,CN(C)S(=O)(=O)c1cccc(NC(=S)N/N=C/C2CC=CCC2)c1 (centres unmarked),6.89
11,O=C(c1ccccc1)C1CCN(C(=O)c2c(F)cccc2F)CC1,10.2
12,CCOc1ccc(CNC(=O)c2ccc(NC(=O)C3=CSCCO3)cc2)cc1,3.68
13,Cc1cc(C)c(C)c(S(=O)(=O)N2CCN(Cc3nc4ccccc4[nH]3)CC2)c1C,0.587
14,CN(C)CCN(Cc1cc2cc3c(cc2[nH]c1=O)OCO3)C(=S)NCc1ccco1,5.49
15,Cl.O=C([C@H](Cc1ccc(O)cc1)n1cc(CCO)nn1)N1CCNCC1,18.7
16,NC(=O)CSc1nnc(-c2ccncc2)n1-c1ccc(Cl)cc1,-3.17
17,COCCN(C(=O)COC(=O)Cc1cccc(OC)c1)c1c(N)n(Cc2ccccc2)c(=O)[nH]c1=O,-2.76
18,COc1cccc(OC)c1OCCNC(C)(C)C.O=C(O)C(=O)O,13.1
19,Cn1[nH]c(=O)c(Cl)c(Cl)c1=O,11.8
20,O=c1cc(CN2CCN(c3ccccn3)CC2)nc2sccn12,9.39
21,Fc1ccc(Cc2nnc(-c3cccs3)o2)cc1,-2.04
22,O=C(Nc1ccc(NC(=O)c2sc3ccccc3c2Cl)cc1)c1ccco1,19.1

row,Structure (SMILES),"hERG current change (%, negative = inhibition) at 1uM [%]"
1,N#C/C(=C\c1ccc(-c2cccc([N+](=O)[O-])c2)o1)C(=O)NCCN1CCOCC1,-12.7
2,COc1cccc(CN(C)C(=O)c2cc(-c3ccc(OC)c(OC)c3)nc3ccccc23)c1,7.34
3,COc1ccc(NC(=S)N/C(=N/S(=O)(=O)c2ccc(C)cc2)c2ccccc2)cc1,14.1
4,Cl.Nc1ccc(Br)c2cccnc12,23.4
5,Cc1ccc(S(=O)(=O)CC2CSc3nnc(C)c(=O)n32)cc1 (centres unmarked),21.1
6,CC1(C)Cc2c(cnn2-c2cccc(F)c2)C(NC(=O)c2ccc(=O)[nH]n2)C1 (centres unmarked),-61.7
7,COc1ccc(N2CCN(CCCn3c(=S)[nH]c4ccccc4c3=O)CC2)cc1,-16.2
8,c1ccc2c(c1)COC(CNC1CCCCC1)OC2,9.09
9,CC(NC(=O)COC(=O)c1cc(Cl)ccc1O)C1CC2CCC1C2 (centres unmarked),10.2
10,CC(C)(C)C(=O)N1CCN(c2nc3ccccc3s2)CC1,0.817
11,Cc1cc(C)c(S(=O)(=O)c2ccccc2C)c(SCC(C)C)n1,-1
12,CCOc1ccc(OCC)c(NC(=O)CSc2nc3c(c(=O)n(C)c(=O)n3C)n2CC)c1,-4.59
13,CN(C)CCNC(=O)CCn1nc(-c2ccc(Cl)cc2)ccc1=O,6.61
14,CC(=O)Nc1ccc(S(=O)(=O)Nc2ccc(S(=O)(=O)Nc3nc(C)cc(C)n3)cc2)cc1,16.6
15,O=C(O)CCCn1c(=S)[nH]c2c(sc3ccc([N+](=O)[O-])cc32)c1=O,16.9
16,COc1ccc(/C=C(\NC(=O)c2ccccc2)C(=O)N2CCN(C)CC2)cc1,-75.2
17,COc1ccc(NC(=O)CSc2nnnn2C2CCCCC2)cc1,12.3
18,Cc1sc(N/N=C/c2cccs2)nc1-c1ccccc1,2.84
19,Cc1cccc(-c2nnc(SCc3cc(=O)[nH]c4ccccc34)n2C)c1,-16.2
20,CCOP(=O)(OCC)C(O)c1cccc([N+](=O)[O-])c1 (centres unmarked),7.94
21,O=C(NC1CCCC1)C1CCN(S(=O)(=O)N2CCCCC2)CC1,11.9
22,O=C(COC(=O)CCC(=O)c1cccs1)Nc1ccccc1[N+](=O)[O-],10.3
